Over roughly 110,000 compounds, “z-score” has its median near -0.1; the highest 2% begin near 2. The list shows a part of the results. Activity calls are given as the source filed them.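 Rule for the calls: active = z-score in the third read window above 3 or below -3; inactive = the rest.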

In this experiment the target is Metabotropic glutamate receptor 8 (Rattus norvegicus) (UniProt P70579). The experiment in a line: mGluR8 Gi/Go-coupled signaling modulation – cell-based, rat, thallium flux, HTS, primary screen (AID 488969). The note with it: HEK293 rat mGluR8, GIRK (G protein-gated inwardly rectifying potassium channel) thallium flux, FluoZin2; at 10 µM; stronger effect = higher value; submaximal glutamate (EC20) added with thallium.
Chain of UniProt P70579 (P70579 whole entry, looked up): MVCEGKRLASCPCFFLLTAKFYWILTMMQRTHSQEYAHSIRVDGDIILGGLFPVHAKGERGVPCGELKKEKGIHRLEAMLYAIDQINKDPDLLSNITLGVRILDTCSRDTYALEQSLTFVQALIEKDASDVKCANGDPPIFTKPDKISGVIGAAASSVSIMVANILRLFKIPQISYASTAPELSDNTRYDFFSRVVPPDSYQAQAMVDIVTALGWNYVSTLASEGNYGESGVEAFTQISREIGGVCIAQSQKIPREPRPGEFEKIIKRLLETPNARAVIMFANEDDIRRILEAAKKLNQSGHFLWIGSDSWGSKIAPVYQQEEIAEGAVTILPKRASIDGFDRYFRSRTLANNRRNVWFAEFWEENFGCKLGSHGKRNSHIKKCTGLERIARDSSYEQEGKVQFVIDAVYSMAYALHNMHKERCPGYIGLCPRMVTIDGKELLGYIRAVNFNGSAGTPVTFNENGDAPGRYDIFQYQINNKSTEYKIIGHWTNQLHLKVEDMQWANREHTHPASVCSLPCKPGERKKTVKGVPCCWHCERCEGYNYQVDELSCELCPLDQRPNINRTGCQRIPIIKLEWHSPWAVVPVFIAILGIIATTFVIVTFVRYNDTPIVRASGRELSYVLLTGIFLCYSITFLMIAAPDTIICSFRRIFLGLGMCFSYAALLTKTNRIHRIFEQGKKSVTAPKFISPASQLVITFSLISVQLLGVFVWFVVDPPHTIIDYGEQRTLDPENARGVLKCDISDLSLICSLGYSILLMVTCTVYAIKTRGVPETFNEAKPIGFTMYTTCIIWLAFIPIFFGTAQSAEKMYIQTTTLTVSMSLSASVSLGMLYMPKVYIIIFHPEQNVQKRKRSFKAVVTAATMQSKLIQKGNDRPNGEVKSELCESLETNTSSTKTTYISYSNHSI
On to `Cc1nn(Cc2ccc(Cl)cc2)c(C)c1NC(=O)CSc1n[nH]c(C)c1[N+](=O)[O-]`, for which the z-score was -0.196. The value for `O=[N+]([O-])c1cccc(Cl)c1NCCNS(=O)(=O)c1ccc(Cl)cc1` was -0.175; that for `O=C(CN1CCCCC1)N1c2ccccc2Oc2ccccc21` was -0.0708; that for `CC(OC(=O)c1ccc2ccccc2n1)C(=O)Nc1ccc(N2CCOCC2)cc1` (stereo unspecified) was 0.981.

As for `COC(CNC(=O)Cn1ncc2ccsc2c1=O)OC`, the z-score was -0.112. With `CCOC(=O)N1CCN(C(=O)c2ccc3c(c2)ncn3C2CCCC2)CC1` the figure was -0.295; with `O=c1ccc(/C=C/c2ccccc2)nn1Cc1ccccc1Cl`, -0.137. With `COc1cc(NC(=O)CSc2nnnn2-c2ccccc2)cc(OC)c1OC` the figure was -0.12; with `CCOC(=O)c1nn(-c2ccc(C)c(C)c2)cc1O`, -0.275. For the molecule `CC1(C)OC(=O)C(=CNc2ccccc2F)C(=O)O1`, the z-score is 0.41.

Consider `COC(=O)C/C(C)=N/Nc1ccc(S(=O)(=O)N2CCCC2)cc1[N+](=O)[O-]`, for which the z-score was -0.198.

`Cn1c(=N)n(CC(O)c2cccc3ccccc23)c2ccccc21` (stereo unspecified) displayed a z-score of 1.78.

Molecule `CN(C)Cc1cc(C(C)(C)C)c(O)c(C(C)(C)C)c1` came in with a z-score of -0.0863. `CCCCn1c(N)c(N(CC)C(=O)CCc2ccccc2)c(=O)[nH]c1=O` displayed a z-score of -0.0882. `Cc1ccc(NC(=O)N2CCC(C(N)=O)CC2)cc1` gave a z-score of 0.0373. The value for `Cc1ccc(NC(=S)NC2CC3CCC(C2)N3Cc2ccco2)cc1C` (stereo unspecified) was 0.268; that for `O=C(CSc1nc2ncccc2[nH]1)Nc1ccc2c(c1)OCCO2` was 0.926; that for `COc1cccc(/C(C)=N/Nc2ncc(Cl)cc2Cl)c1` was -0.259. The value for `CCN(CC)C(=O)c1ccc(Nc2nnc(C)c3ccccc23)cc1` was -0.0372; that for `Cc1cccc(NC(=O)CN2C(=S)NC(C)(C)CC2C)c1C` (stereo unspecified) was 0.55. With `CSc1nnc(C)c(=O)n1COC(=O)COc1ccccc1C` the figure was 0.943; with `COc1cccc(C2=NOC(C(=O)Nc3cccc(C(C)=O)c3)C2)c1OC` (stereo unspecified), 0.301; with `COc1cc(NS(=O)(=O)c2ccc(OC)c(C)c2C)c(OC)cc1Cl`, -0.393. For `COc1ccccc1NC(=O)c1ccc(S(=O)(=O)N2CCOCC2)cc1`, the z-score amounted to 0.986. In turn, `COC(=O)c1c(NC(=O)Cn2cc([N+](=O)[O-])cn2)sc2c1CCC2` yielded a z-score of -0.16. Molecule `CNc1nc(-c2ccccc2)nc(-c2ccccc2)c1C#N` returned a z-score of -0.452.

For the molecule `Cc1ccc(NC(=S)NC(=O)c2ccc(-c3ccc(Cl)cc3)o2)c(O)c1`, the z-score worked out at 1.69. With `Cc1ccccc1N=C(NOCc1ccccc1)c1nonc1N` the figure was -0.423; with `CCCCn1c(SCC(=O)NCc2ccco2)nc2ccccc2c1=O`, active: 6.36; with `COc1cc2c(cc1OC)C(CC#N)=NC(C)(C)C2`, 0.431. With `CCOC(=O)c1c(NC(=O)CSc2nnc(-c3cccnc3)o2)sc(C(C)=O)c1C` the figure was -2.08; with `Cc1cc(C)cc(N(CCC(=O)Nc2nnc(C)s2)S(=O)(=O)c2ccc(Cl)cc2)c1`, -0.238.

`CN(C1CCCCC1)S(=O)(=O)c1ccccc1` registered a z-score of -0.282. The value for `COc1nc(-c2ccccc2)ccc1-c1noc(-c2ccco2)n1` was 0.332; that for `NC(=O)c1ccc(C(F)(F)F)n(Cc2cccc(Cl)c2)c1=O` was -0.279; that for `CC(Sc1nc(N)c2c3c(sc2n1)CSC(C)(C)C3)C(=O)Nc1ccccc1` (stereo unspecified) was -0.183. With `COC(=O)c1ccc(Oc2ccc(C(C)(C)C)cc2)c([N+](=O)[O-])c1` the figure was -0.201; with `Cc1ccccc1OCC(=O)NCC1CCCO1` (stereo unspecified), -0.262; with `CC1C/C(=C/c2cccn2C)C(=O)/C(=C/c2cccn2C)C1` (stereo unspecified), -0.236. For the molecule `COC(=O)c1coc(-c2ccc(OC)cc2)c1C(=O)OC`, the z-score was 1.66. The value for `CCOC(=O)Cc1csc(NC(=O)NC2(C(F)(F)F)Oc3cc(Cl)c(Cl)cc3O2)n1` was -0.159; that for `CC1CCCCN1S(=O)(=O)c1ccc2c(c1)oc(=O)n2CC(=O)O` (stereo unspecified) was -0.535; that for `CCCC(C)NC(=O)c1cc(C(=O)OC)cc([N+](=O)[O-])c1` (stereo unspecified) was 0.235. As for `CSc1nc2ccccc2cc1/C=C(\C#N)c1cccc(C)c1`, the z-score is active: 3.99. The value for `CCC(C)(C)n1nnnc1C(C(C)C)N(Cc1ccco1)Cc1cc2cc3c(cc2[nH]c1=O)OCO3` (stereo unspecified) was -0.127. With `O=C(NC1CCCCC1)NC1CCN(C(=S)NCc2ccco2)CC1` the figure was -0.105; with `Cc1cc(C(=O)CSc2nnc(N)s2)c(C)n1CCc1ccc(F)cc1`, 0.907. The value for `O=C(Nc1ccc(Cl)cc1C(F)(F)F)c1ccc(Cl)cc1` was -0.364. Consider `Cc1ccc(-c2nc(CS(=O)CC(=O)N3CCN(c4ncccn4)CC3)c(C)o2)cc1` (stereo unspecified), for which the z-score was -0.123.

In the case of `CC(=O)c1cn(CC(=O)NCC2CCCO2)c2ccccc12` (stereo unspecified), the z-score was -0.101. With `CCOC(=O)c1c(C)n(C)c2ccc(OC(C)=O)cc12` the figure was -0.514; with `CCOCCCNS(=O)(=O)c1ccc(-n2cnnn2)c(OC)c1`, -0.52. With `CCN(CC)C1CCCCC1NS(=O)(=O)c1ccc(Cl)cc1` (stereo unspecified) the figure was -0.494; with `CCOc1ccc(-c2c(=O)n(OCc3ccccn3)c3ccccc3[n+]2[O-])cc1`, 0.0236. Turning to `COCCn1c(=O)c2c3c(sc2n(CC(N)=O)c1=O)CCCC3`, the z-score was -0.12. With `CCN(CC)C(=O)CSc1nc2ccc(NC(=O)CSc3nnc(COc4ccccc4C)n3C)cc2s1` the figure was -0.166. The value for `C/C(=N/N1CCN(c2ccccn2)CC1)c1ccc([N+](=O)[O-])cc1` was -0.472. The value for `COc1ccc(-n2c(C)cc(C(=O)Cn3nc(C(=O)O)c4ccccc4c3=O)c2C)cc1` was -0.162; that for `C=CCn1c2ccccc2c2nnc(SCC(=O)NC(C(=O)OC)C(C)C)nc21` (stereo unspecified) was -0.138; that for `CCCCCSc1nc2c(cnn2-c2ccccc2)c(=O)[nH]1` was -1.02. Consider `COc1ccc(C2=Nc3cccc4cccc(c34)N2)cc1`, for which the z-score was -0.172. Molecule `CC(NC(=O)C1CC2CCCC(C1)C2=O)c1ccccc1` (stereo unspecified) showed a z-score of 0.432. The value for `Cc1nn(C2CCCCC2)c(N)c1-c1ccccc1` was 0.796.

`CCCc1nc(N2CCOCC2)c2sc(=S)n(-c3ccccc3)c2n1`: the z-score was -0.0824.

In turn, `CC(=O)N1C(=O)N(C)C2C1N(C)C(=O)N2C(C)=O` (stereo unspecified) registered a z-score of -0.27. Molecule `COc1ccc(C(=O)Nn2c(SCC(=O)c3ccccc3)nc3ccccc3c2=O)cc1` yielded a z-score of 0.0458. With `O=C(Cn1cc([N+](=O)[O-])cn1)Nc1ccn(Cc2c(F)c(F)c(F)c(F)c2F)n1` the figure was -0.201. With `Cc1nc2ncnn2c(N2CCC(C(=O)NC3CCCC3)CC2)c1Cc1ccccc1` the figure was -0.964; with `O=C(c1ccco1)n1nc(-c2ccccc2)nc1SCc1ccccc1`, -0.293. With `CC(=O)N1N=C(c2ccco2)CC1c1ccc(Br)cc1` (stereo unspecified) the figure was -0.329. `CCOC(=O)N1CCN(C(=O)CSCC(=O)Nc2nc(-c3ccccc3)cs2)CC1` had a z-score of -0.19.

Turning to `COc1ccc(-c2noc(Cc3cccs3)n2)cc1`, the z-score stood at 0.196. With `Cc1cc(C(=O)Nc2ccc(S(=O)(=O)Nc3nccs3)cc2)c(C)o1` the figure was -0.331; with `COCCCN1C(=O)c2ccc(C(=O)Nc3cccc(OC)c3)cc2C1=O`, 0.0614; with `Cc1cn(S(=O)(=O)c2ccc(Br)cc2)cn1`, -0.32.

`CCN1C(=O)/C(=C/C=C2\C=CN(CC)c3ccccc32)SC1=S` came in with a z-score of 0.441.

For `CN=C(C)c1c(O)c2ccccc2oc1=O`, the z-score is -0.171.

`COc1ccc(-n2nnnc2SCC(=O)c2cc3ccccc3o2)cc1`: the z-score stood at 0.482.

Consider `COc1cc2c(cc1OC)C1=C(C#N)CCC(=O)N1CC2`, for which the z-score was 0.55. On to `COc1cc(/C=N/Nc2nnc3c(n2)[nH]c2ccccc23)ccc1O`, for which the z-score is -0.014. With `O=C(c1sc2ccccc2c1Cl)N1CCN(c2ccc(F)cc2)CC1` the figure was -0.238; with `COc1ccccc1CC(=O)Nc1cccc(C(=O)NN2C(=O)c3ccccc3C2=O)c1`, -0.129; with `O=C(Nc1cccc(-c2cn3ccccc3n2)c1)c1cc2ccccc2oc1=O`, 0.101.

`CCOC(=O)c1cnc(SC2CC(=O)N(c3ccc(C)cc3)C2=O)nc1N` (stereo unspecified) registered a z-score of -0.16.

In the case of `Cc1cc(SCC(=O)c2ccc3c(c2)OCO3)nc2ccccc12`, the z-score came out at 0.243. The value for `Cn1c(=O)c2c(nc(CN3CCc4ccccc4C3)n2Cc2ccccc2)n(C)c1=O` was -0.932; that for `NNC(=O)CCS(=O)(=O)c1ccc2ccccc2c1` was -0.0752; that for `Cc1ccc(NC(=O)Cn2cccc2C2=NC(c3ccccc3)CO2)c(C)c1` (stereo unspecified) was -0.0278. In the case of `CC(C)Nc1nc(NC(C)C)nc(N(C)n2cnnc2)n1`, the z-score was -1.8. Take `N#Cc1nc(-c2ccccc2F)oc1NCc1cccc2c1OCO2`: the z-score was -0.589. The value for `N#CC(C#N)=C1C=C2C=C(N3CCCCC3)CCC2CC1` (stereo unspecified) was active: 10.9; that for `CSCC[C@H](NC(=O)OC(C)(C)C)c1nnc(SCc2ccccc2)o1` was -0.639. With `CC(C(=O)Nc1ccccn1)N1C(=O)C2C3C=CC(C3)C2C1=O` (stereo unspecified) the figure was 0.225; with `COC(=O)Cc1cc(=O)oc2cc(OC)ccc12`, 0.038. The value for `Fc1ccc(OCCCCCCN2CCCC2)cc1` was 0.0752; that for `COc1cccc(OCCCCN2CCCCC2)c1` was 0.263; that for `COc1ccc(/C=C2/N=C(c3cccs3)OC2=O)cc1OC(C)C` was -0.157. For the molecule `Cc1ccc(CCNC(=O)CN(C)S(=O)(=O)c2cnc[nH]2)cc1`, the z-score is -0.164.

As to `NC(=O)Nc1ccc2c(c1)OCCO2`, the z-score was -0.121. With `CCOc1ccc(C(c2c(O)nc(SC)n(C)c2=O)c2c(O)nc(SC)n(C)c2=O)cc1` the figure was -0.171. Take `COc1ccc(C2N(C(=O)c3ccccc3)CCN2C(=O)c2ccc(C)cc2)cc1` (stereo unspecified): the z-score came out at 0.0284.

Regarding `CCCN1Cc2cccc(C(=O)NCc3ccccc3)c2C1=O`, the z-score is -1.23. Molecule `COc1ccc(-n2nc3c(c2NC(=O)C24CC5CC(CC(C5)C2)C4)CS(=O)C3)cc1` (stereo unspecified) registered a z-score of 0.0567. In turn, `CN=C(Nc1ccccc1OC)SC1CC(=O)N(c2ccc(C(=O)OC)cc2)C1=O` (stereo unspecified) came in with a z-score of -0.0907.

The molecule `O=C(NN1C(=O)c2ccccc2C1=O)C1CC2CCC1C2` (stereo unspecified) returned a z-score of -0.259. The molecule `N#Cc1c(NC(=O)COC(=O)c2ccc(F)cc2)sc2c1CCC2` gave a z-score of -0.787.

Consider `O=C1CC(N2CCN(S(=O)(=O)c3ccc(Cl)cc3)CC2)C(=O)N1CCc1ccccc1` (stereo unspecified), for which the z-score stood at 0.67.

Take `CCNc1nc(N2CCOCC2)nc(N(c2ccccc2)c2ccccc2)n1`: the z-score is -0.128. For the molecule `OC(CNC1CCCC1)COc1c(F)cc(Br)cc1F` (stereo unspecified), the z-score came to 0.142. With `COC(=O)c1sc2nc(SCc3cccc(F)c3)n(N)c(=O)c2c1C` the figure was -0.146; with `N#CC1=C(N)OC2=C(C(=O)CC(c3ccco3)C2)C1c1ccc(OCc2c(F)cccc2Cl)cc1` (stereo unspecified), -0.068.
